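48-hour exposure; five concentrations; linearly interpolated endpoints. At the GI50, growth is halved. TGI: concentration producing complete growth inhibition.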 Activity calls are given as the source filed them.
Columns and labels:
CCRF-CEM leukemia = experiment: inhibition of tumour cell growth, NCI panel, 48 h
SR leukemia = experiment: inhibition of tumour cell growth, NCI panel, 48 h

In the case of CCOC(=O)c1ccc(N/N=C/c2cn(-c3ccc(S(N)(=O)=O)cc3)nc2-c2ccc(OC)cc2)cc1, the GI50 (CCRF-CEM leukemia) is reported as “inactive”, the TGI (CCRF-CEM leukemia) is reported as 11.7 µM and the GI50 (SR leukemia) is reported as “inactive”. The TGI (SR leukemia) was 6.63 µM.
